Laboratory results from the supplement of paper PMC12217912.
This is one part of the list. Sequences were assembled here from the parent chain. Inactive controls read about 0.05.

B1: TEV protease; numbered along this chain (parent)
chain: MGESLFKGPRDYNPISSSICHLTNESDGHTTSLYGIGFGPFIITNKHLFRRNNGTLVVQSLHGVFKVKDTTTLQQHLVDGRDMIIIRMPKDFPPFPQKLKFREPQREERICLVTTNFQTKSMSSMVSDTSCTFPSGDGIFWKHWIQTKDGQCGSPLVSTRDGFIVGIHSASNFTNTNNYFTSVPKNFMELLTNQEAQQWVSGWRLNADSVLWGGHKVFMVKPEEPFQPVKEATQL

Variants of: B1
Assay: raw area under fraction-flipped curve 0-4 h after induction (AUC4h, not background-subtracted), DNA-recorder readout of cleavage of the substrate (dimensionless); higher = more cleavage of the substrate by the protease variant
Conditions: temperature: 34 °C; time window: 0-4 h after rhamnose induction
Experimental: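 In vivo DNA recorder in E. coli TOP10(DE3) ΔrhaA at 34 °C. Each TEVp single-site mutant (parent TEVp 0) is paired with a single-site variant of the 7-mer TEVs (canonical ENLYFQ|S). The substrate sits between flexible linkers in a Bxb1-sfGFP-TEVs-SsrA fusion, so cleavage stabilises Bxb1 and speeds flipping of a recombination array, read by NGS. The value is the raw area under the fraction-flipped curve over 0-4 h after rhamnose induction (AUC4h), with ≥20 reads per time point. It is not background-subtracted; inactive controls average about 0.047.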
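Also: Bxb1 expression induced with 0.2% (w/v) L-rhamnose at OD600 near 0.5, cultures sampled hourly, flipped fraction per protease–substrate barcode pair counted by paired-end Illumina sequencing.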

| Variant | area with substrate ENLYFAS | area with substrate ENLYFCS | area with substrate ENLYFDS | area with substrate ENLYFES | area with substrate ENLYFFS | area with substrate ENLYFGS | area with substrate ENLYFHS | area with substrate ENLYFIS | area with substrate ENLYFKS | area with substrate ENLYFLS | area with substrate ENLYFMS | area with substrate ENLYFPS | area with substrate ENLYFRS | area with substrate ENLYFSS | area with substrate ENLYFTS | area with substrate ENLYFVS | area with substrate ENLYFWS | area with substrate ENLYFYS | area with substrate ENLYFNS |
| --- | --- | --- | --- | --- | --- | --- | --- | --- | --- | --- | --- | --- | --- | --- | --- | --- | --- | --- | --- |
| H29C | 0.0702 | 0.0565 | 0.0663 | 0.0623 | 0.0806 | 0.0543 | 0.0566 | 0.0575 | 0.0634 | 0.0584 | 0.0669 | 0.064 | 0.0709 | 0.0593 | 0.0581 | 0.0594 | 0.0556 | 0.0525 |  |
| H29N | 0.0568 | 0.0544 | 0.0524 | 0.0419 | 0.077 |  |  | 0.043 | 0.0658 | 0.0342 | 0.0708 | 0.0634 | 0.0582 | 0.0541 | 0.0585 |  | 0.0424 |  | 0.0822 |
| T30L | 0.0501 | 0.0595 | 0.053 | 0.0558 | 0.0707 |  |  | 0.0634 |  | 0.0658 | 0.0597 | 0.066 | 0.0385 | 0.0616 | 0.0421 | 0.0685 | 0.0597 | 0.0497 | 0.0499 |
| T30Y | 0.0636 | 0.0657 | 0.0514 | 0.0688 |  | 0.0361 | 0.06 | 0.0623 | 0.0476 | 0.0355 | 0.0496 | 0.0575 | 0.0681 |  | 0.0536 |  | 0.0615 | 0.0543 | 0.073 |
| L33I | 0.128 | 0.0732 | 0.0626 | 0.0606 | 0.0761 | 0.0481 | 0.0571 | 0.0553 | 0.0618 | 0.0627 |  | 0.0586 | 0.0612 | 0.0642 |  | 0.0529 | 0.0642 | 0.0399 | 0.0495 |
| L33M | 0.0542 | 0.0609 | 0.0587 | 0.0722 | 0.0749 |  | 0.0714 | 0.058 | 0.0672 | 0.061 | 0.0654 | 0.0637 | 0.0676 | 0.056 | 0.0376 |  | 0.0625 |  | 0.0637 |
| I36H | 0.0538 | 0.0075 |  |  | 0.0394 |  | 0.0336 | 0.0359 | 0.0515 |  | 0.0422 | 0.0459 | 0.0274 |  |  | 0.0116 | 0.0321 | 0.0361 |  |
| I36M | 0.062 | 0.0357 | 0.0425 | 0.0683 | 0.0617 | 0.0342 |  | 0.0511 | 0.0546 | 0.0678 | 0.0619 | 0.061 | 0.0564 | 0.0702 | 0.0554 | 0.067 | 0.0509 | 0.052 | 0.0638 |
| I36S | 0.0362 | 0.0446 | 0.0592 | 0.0591 | 0.0622 | 0.0426 |  | 0.0479 | 0.0597 |  | 0.0584 | 0.0504 | 0.0336 | 0.0483 | 0.0443 | 0.042 | 0.0484 | 0.0558 | 0.0541 |
| I36T | 0.0294 |  |  | 0.0675 | 0.0703 |  | 0.0452 | 0.0509 | 0.0531 |  | 0.0463 | 0.048 | 0.0489 | 0.0557 | 0.0553 | 0.0099 | 0.053 |  | 0.06 |
| I36W | 0.0527 | 0.0517 | 0.0552 | 0.0633 | 0.0634 | 0.058 |  | 0.048 | 0.0461 |  | 0.0494 | 0.0712 |  |  | 0.046 |  | 0.0382 | 0.0571 | 0.0637 |
